{"source": "paper PMC10801772", "about": "(The Journal of Pharmacology and Experimental Therapeutics, 2024)", "origin": "cited, not measured here", "key": {"[1]": {"conditions": "ref Pubchem (https://pubchem.ncbi.nlm.nih.gov); cited from earlier work"}, "[2]": {"conditions": "ref Chemicalbook (https://www.chemicalbook.com); cited from earlier work"}}, "data": [{"smiles": "Nc1ccnc(N)c1", "note": "[2,4-DAP, 2,4-diaminopyridine]", "values": [{"measurement": "logP", "setting": "[1]", "value": -0.2}, {"measurement": "pKa", "setting": "[2]", "value": 9.41}]}, {"smiles": "Nc1ccnc(F)c1", "note": "[2F-4AP, 4-amino-2-fluoropyridine]", "values": [{"measurement": "logP", "setting": "[1]", "value": 0.6}, {"measurement": "pKa", "setting": "[2]", "value": 3.76}]}, {"smiles": "Nc1cncc(N)c1N", "note": "[3,4,5-TAP, 3,4,5-triaminopyridine]", "values": [{"measurement": "logP", "setting": "[1]", "value": -1.2}, {"measurement": "pKa", "setting": "[2]", "value": 9.08}]}, {"smiles": "Nc1ccncc1N", "note": "[3,4-DAP, 3,4-diaminopyridine]", "values": [{"measurement": "logP", "setting": "[1]", "value": -0.5}, {"measurement": "pKa", "setting": "[2]", "value": 9.17}]}, {"smiles": "[2H]c1nc([2H])c(N)c(N)c1[2H]", "note": "[3,4-DAP-d3, 3,4-diaminopyridine-d3]", "values": [{"measurement": "logP", "setting": "[1]", "value": -0.5}]}, {"smiles": "Nc1c(F)cncc1F", "note": "[3,5DF-4AP, 4-amino-3,5-difluoropyridine]", "values": [{"measurement": "logP", "setting": "[1]", "value": 0.4}, {"measurement": "pKa", "setting": "[2]", "value": 5.12}]}, {"smiles": "Nc1ccncc1F", "note": "[3F-4AP, 4-amino-3-fluoropyridine]", "values": [{"measurement": "logP", "setting": "[1]", "value": 0.3}, {"measurement": "pKa", "setting": "[2]", "value": 7.19}]}, {"smiles": "Cc1cnccc1N", "note": "[3Me-4AP, 3-methyl-4-aminopyridine]", "values": [{"measurement": "logP", "setting": "[1]", "value": 0.5}, {"measurement": "pKa", "setting": "[2]", "value": 9.43}]}, {"smiles": "Nc1ccncc1", "note": "[4-AP, 4-aminopyridine]", "values": [{"measurement": "logP", "setting": "[1]", "value": 0.3}, {"measurement": "pKa", "setting": "[2]", "value": 9.17}]}, {"smiles": "[2H]c1nc([2H])c([2H])c(N)c1[2H]", "note": "[4-AP-d4, 4-aminopyridine-d4]", "values": [{"measurement": "logP", "setting": "[1]", "value": 0.3}]}]}
